Measured values: PubChem BioAssay (Tox21)
“And” between values parts separate entries of the source, which are not always exact repeats. Identical values can stand only once. Inconclusive means that the source gave no clear call. Such entries were picked first, then a sample of the others. A potency beside an inconclusive call is a rough fit, not a confirmed value. The source made the active and inactive calls. Calls follow the shape of the dose curve; as a rule, active = well fitted activation curve with a large enough effect in the signal ratio in the repeat runs (not every such curve was filed as active); inconclusive = weak or mixed curves; inactive = flat fitted curve, though single readings scatter; the % refers to the signal ratio.

Experiment: p53 small molecule agonists, cell-based qHTS assay (AID 1963582)
Conditions: HCT-116 p53RE-bla reporter, beta-lactamase FRET ratio, 16 h; activation: at 66 µM (top of the series) unless noted
From the text: National Center for Advancing Translational Sciences [NCATS]
Division of Preclinical Innovation [DPI]
U.S. Environmental Protection Agency [EPA]
National Institutes of Environmental Health Sciences [NIEHS]
National Toxicology Program [NTP]
U.S. Food and Drug Administration [FDA]
p53, a tumor suppressor protein, is activated following cellular insult, including DNA damage and other cellular stresses. The activation of p53 regulates cell fate by inducing DNA repair, cell cycle arrest, apoptosis, or cellular senescence. The activation of p53, therefore, is a good indicator of DNA damage and other cellular stresses. […] The activation of the reporter gene under culture conditions can be detected by fluorescence intensity. This cell line was used to screen the Tox21 10K compound library in a 1536-well plate format and to identify agonists that activate the p53 signaling pathway.
Tox21 Assay Protocol Summary:
The p53RE-bla cells were dispensed at 4,000 cells/5 ul/well in 1536-well black wall/clear bottom plates using a Multidrop dispenser. After the assay plates were incubated at a 37 C/5% CO2 incubator for 5 hours, 23 nL of compounds dissolved in DMSO, positive controls or DMSO only was transferred to the assay plate by a pin tool. The plates were incubated at 37 C for 16 hours. After 1 uL of LiveBLAzerTM B/G FRET substrate was added using a Flying Reagent Dispenser, the plates were incubated at room temperature for 2 hours, and fluorescence intensity was measured by an Envision plate reader.
% is scaled to controls: 0 for no effect and ±100 for the full control effect; potency is read from the fitted curve at half-maximal effect; tags tell the direction and shape of the fitted curve or compound fluorescence and quenching.

SMILES | activation | Potency
Nc1cccc(S(=O)(=O)O)c1 | inactive: -4.19% | 
O=C1OC2(c3ccccc31)c1cc(Br)c(O)c(Br)c1Oc1c2cc(Br)c(O)c1Br |  | inconclusive: 29.3 µM [rising, partial curve] and inconclusive: 41.9 µM [rising, partial curve] and inconclusive: 17.8 µM [rising, partial curve]
C=Cc1cccc(C)c1 |  | inactive
Cc1ccc(-n2[nH]c(C)c(N=Nc3cccc(-c4cccc(C(=O)O)c4)c3O)c2=O)cc1C |  | inconclusive: 19.9 µM [falling, partial curve]
O=C(CC(=O)C(F)(F)F)c1ccccc1 | inactive: -6.9% | 
COC(c1ccccc1)(c1ccccc1)[C@H](Oc1nc(C)cc(C)n1)C(=O)O | inactive: -1.89% [at 30.3 µM] | 
O=CC=C(c1ccccc1)c1ccccc1 | inconclusive: 11.5% | 
CC(C)c1cccc(C(C)C)c1N1C(=O)c2ccc(O)cc2C1=O |  | inconclusive: 18.2 µM [fluorescent, partial curve, poor fit]
CC1=CC(C)(C)Nc2ccccc21 |  | inconclusive: 0.397 µM [falling, single point]
Cc1ccc2c(c1[N+](=O)[O-])C(=O)c1ccccc1C2=O | inconclusive: 15.7% [at 30.3 µM] | 
CC[C@@]1(O)C(=O)OCc2c1cc1n(c2=O)Cc2cc3c(CN(C)C)c(O)ccc3nc2-1 |  | inconclusive: 19.9 µM [fluorescent, partial curve]
O=C(c1ccc(O)cc1)c1ccc(O)cc1 |  | inconclusive: 25.7 µM [rising, partial curve]
CNCC[C@H](Oc1cccc2ccccc12)c1cccs1 |  | inconclusive: 22.3 µM
c1ccc(CNCCNCc2ccccc2)cc1 |  | inconclusive: 8.9 µM [rising, full curve]
Oc1ccccc1Cc1ccccc1O |  | inconclusive: 14.5 µM [rising, partial curve, poor fit]
O=c1c(-c2ccccc2)c1-c1ccccc1 |  | inconclusive: 22.3 µM [activator, single point]
O=S(=O)(O)c1ccc(N=Nc2c(O)ccc3ccccc23)cc1 |  | inconclusive: 32.4 µM [rising, partial curve]
CCN1CN(CC)CN(CC)C1 | inactive: 5.29% | 
[Cl][Bi]([Cl])([c]1ccccc1)([c]1ccccc1)[c]1ccccc1 |  | inconclusive: 12.8 µM [full curve]
COC(=O)NN | inactive: 2.21% | 

SMILES | activation | Potency
Cc1ccc([N+](=O)[O-])c(C)c1 |  | inconclusive: 12.9 µM [rising, partial curve, poor fit]
Oc1ccc(-c2ccc(O)cc2)cc1 |  | inconclusive: 32.6 µM [activator, partial curve]
O=C1OC2(c3ccccc31)c1ccc(O)c(Br)c1Oc1c2ccc(O)c1Br |  | inconclusive: 40.8 µM [rising, partial curve]
Cc1ccc(C(C)(C)O)cc1 | inactive: -0.842% | 
CC(=O)Oc1ccccc1C(=O)Nc1ncc([N+](=O)[O-])s1 |  | inconclusive: 1.58 µM [fluorescent, full curve]
CNC(=S)NN |  | inconclusive: 2.04 µM [rising, full curve]
CCCCC(=O)O[C@]1(C(=O)CO)[C@@H](C)C[C@H]2[C@@H]3CCC4=CC(=O)C=C[C@]4(C)[C@@]3(F)[C@@H](O)C[C@@]21C | inactive: -8.12% | 
N#Cc1ccccc1 | inconclusive: 7.12% | 
CC(=O)Oc1cc(C(C)C)c(OCCN(C)C)cc1C |  | inconclusive: 11.2 µM [rising, partial curve, poor fit]
CC/C=C\CCOC(=O)C(C)C | inactive: 0.755% | 
O=C1C(=O)c2ccccc2C(O)=C1C1CCC(c2ccc(Cl)cc2)CC1 (stereo not given) |  | inconclusive: 1.99 µM [activator]
CN(C)c1ccc(C(c2ccccc2)c2ccc(N(C)C)cc2)cc1 |  | inconclusive: 2.57 µM [rising, full curve]
COc1ccc(CCN2CCC(Nc3nc4ccccc4n3Cc3ccc(F)cc3)CC2)cc1 |  | inconclusive: 20.9 µM
O=C(c1ccccc1)C1CCCCC1 | inactive: 2.11% | 
O=NN(CCCl)C(=O)NC1CCCCC1 | inactive: 0% [at 30.3 µM] | 
O=S1(=O)CC(Cl)(Cl)C(Cl)(Cl)C1 |  | inconclusive: 5.13 µM [rising, partial curve]
c1cc(CN2CCCCC2)cc(OCCCNc2nc3ccccc3s2)c1 |  | inconclusive: 12.6 µM [rising, partial curve]
C[C@H]1[C@H](NC(=O)/C(=N/OC(C)(C)C(=O)O)c2csc(N)n2)C(=O)N1S(=O)(=O)O (stereo in doubt) | inactive: 1.68% [at 30.3 µM] | 
O=C(Nc1ccccc1SSc1ccccc1NC(=O)c1ccccc1)c1ccccc1 |  | inconclusive: 1.02 µM [falling, single point]
Cc1ccccc1Cl |  | inactive
